Article PMC4599898
No constants are given. Whether binding was seen depends on the method and setting. In cells and extracts the contact can be indirect.

Assays:
Assay in all cases: split reporter; split YFP BiFC in transiently transformed Arabidopsis protoplasts, 2 ug of each plasmid, incubated overnight; read by flow cytometry (at least three biological replicates, minimum 30,000 cells); each pair tested in both fusion conformations (SPN and SPC); positive where the normalized BiFC score lies above the threshold 0.01 in both conformations
[1] = molecular target: T1, GBF2 (Arabidopsis thaliana) (UniProt P42775)
T1 sequence: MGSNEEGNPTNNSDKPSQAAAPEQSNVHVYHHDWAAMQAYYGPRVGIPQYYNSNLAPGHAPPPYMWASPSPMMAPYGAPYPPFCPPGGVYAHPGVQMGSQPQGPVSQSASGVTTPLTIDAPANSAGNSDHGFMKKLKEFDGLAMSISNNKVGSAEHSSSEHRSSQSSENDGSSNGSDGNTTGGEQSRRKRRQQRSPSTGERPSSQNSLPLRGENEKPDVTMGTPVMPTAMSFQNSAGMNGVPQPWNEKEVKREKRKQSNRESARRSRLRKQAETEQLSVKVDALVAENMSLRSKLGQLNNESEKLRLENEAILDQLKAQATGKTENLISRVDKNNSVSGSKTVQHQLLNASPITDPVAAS

[2] = molecular target: T2, GBF3 (Arabidopsis thaliana) (UniProt P42776)
T2 sequence: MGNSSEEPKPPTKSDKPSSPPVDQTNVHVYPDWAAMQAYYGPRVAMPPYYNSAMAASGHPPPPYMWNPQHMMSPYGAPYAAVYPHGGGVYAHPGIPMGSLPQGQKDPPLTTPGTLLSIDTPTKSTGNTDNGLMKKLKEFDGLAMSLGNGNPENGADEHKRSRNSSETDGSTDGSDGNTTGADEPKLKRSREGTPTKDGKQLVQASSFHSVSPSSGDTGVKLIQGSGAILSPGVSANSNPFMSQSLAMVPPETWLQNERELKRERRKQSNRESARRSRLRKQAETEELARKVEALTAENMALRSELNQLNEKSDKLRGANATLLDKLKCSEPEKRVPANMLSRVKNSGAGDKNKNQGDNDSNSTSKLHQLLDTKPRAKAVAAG

[3] = molecular target: T3, Hy5 (Arabidopsis thaliana) (UniProt O24646)
T3 sequence: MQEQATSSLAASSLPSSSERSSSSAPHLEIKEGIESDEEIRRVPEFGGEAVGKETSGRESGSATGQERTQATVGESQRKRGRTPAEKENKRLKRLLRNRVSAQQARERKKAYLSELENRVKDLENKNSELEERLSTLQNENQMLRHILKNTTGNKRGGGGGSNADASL

[4] = molecular target: T4, bZIP63 (Arabidopsis thaliana) (UniProt B9DGI8)
T4 sequence: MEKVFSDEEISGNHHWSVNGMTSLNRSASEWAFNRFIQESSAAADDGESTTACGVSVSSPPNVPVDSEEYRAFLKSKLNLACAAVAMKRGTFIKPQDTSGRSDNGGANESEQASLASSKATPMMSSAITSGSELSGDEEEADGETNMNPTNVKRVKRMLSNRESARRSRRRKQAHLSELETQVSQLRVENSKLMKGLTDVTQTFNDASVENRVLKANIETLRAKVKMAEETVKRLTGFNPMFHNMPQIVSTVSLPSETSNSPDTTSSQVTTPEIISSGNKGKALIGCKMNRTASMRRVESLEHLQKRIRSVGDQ

[5] = molecular target: T5, bZIP68 (Arabidopsis thaliana) (UniProt Q84LG2)
T5 sequence: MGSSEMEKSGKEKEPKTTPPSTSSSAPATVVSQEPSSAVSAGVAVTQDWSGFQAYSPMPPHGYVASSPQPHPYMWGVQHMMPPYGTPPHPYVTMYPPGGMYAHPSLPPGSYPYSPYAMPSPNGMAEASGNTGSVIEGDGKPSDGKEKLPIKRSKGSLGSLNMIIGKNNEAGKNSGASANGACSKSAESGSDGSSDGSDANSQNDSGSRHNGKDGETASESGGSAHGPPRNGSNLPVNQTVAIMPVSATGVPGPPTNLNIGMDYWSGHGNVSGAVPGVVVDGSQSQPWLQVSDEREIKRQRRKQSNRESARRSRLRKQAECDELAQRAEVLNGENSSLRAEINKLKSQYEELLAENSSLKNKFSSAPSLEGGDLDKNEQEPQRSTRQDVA

Measured: binding

B1: bZIP9 (protein, UniProt Q9FUD3 1-277)
chain: MDNHTAKDIGMKRSASELALQEYLTTSPLDPCFDLMNRDYTCELRDSLLWSEGLFPAGPFRDAQSSICENLSADSPVSANKPEVRGGVRRTTSGSSHVNSDDEDAETEAGQSEMTNDPNDLKRIRRMNSNRESAKRSRRRKQEYLVDLETQVDSLKGDNSTLYKQLIDATQQFRSAGTNNRVLKSDVETLRVKVKLAEDLVARGSLTSSLNQLLQTHLSPPSHSISSLHYTGNTSPAITVHSDQSLFPGMTLSGQNSSPGLGNVSSEAVSCVSDIWP
no binding: [1] | [2] | [3] | [4] | [5]
